# Results taken from the supplement of paper PMC5499739.
# Over roughly 16,000 sequences, “Z-score” has its median near -0.37; the highest 2% begin near 3.1. Some of the results follow.
# System: RBM10 RRM1-ZnF-RRM2 (GST-tagged construct)
# Assay: RNAcompete 7-mer binding Z-score; higher = stronger binding preference
# In short: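 Bound RNA was identified by microarray hybridisation after GST-tagged RBM10 constructs (20 pmol) had been mixed with 1.5 nmol of a designed pool of 241 399 RNAs up to 41 nt, transcribed from microarray-derived DNA templates. Binding ran for 30 min at 4°C in 1 ml Hepes pH 7.8 buffer with KCl, NaCl, glycerol, DTT, BSA and glutathione Sepharose beads, with four 2-min washes at 4°C afterwards. For every heptamer motif, a one-sided Z-score for enrichment was computed across the probes that contained it.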
row,Sequence,RNAcompete 7-mer binding Z-score
1,CUUUCUU,-0.854
2,UGUAAAG,0.257
3,AAUAAAG,-0.067
4,AGACCCG,-1.15
5,UUUGUCG,-0.577
6,AACUUCU,-0.759
7,GUAUUCG,-0.347
8,AACACCU,-0.785
9,ACUGCUG,-0.701
10,AGGAUAU,1.04
11,GAUUACU,-0.551
12,AGGGUGC,2.43
13,GCUGCUU,-0.439
14,GGUUAUU,0.891
15,CAUCUCC,-0.795
16,GAGUAUA,0.556
17,CUUAAAC,-0.646
18,GCUCCCU,-0.61
19,UUUAACU,-0.734
20,AUCGUGA,-0.253
21,CGGCCAG,0.141
22,GGACCGG,1.52
23,UUUAUAA,-0.686
24,AGCGUUU,-0.384
25,UUGCAUG,-0.3

row,Sequence,RNAcompete 7-mer binding Z-score
1,GGAGGAA,3.08
2,AUCAGGU,1.17
3,ACUCGGG,0.618
4,UCCAUGU,-0.544
5,GUCAGUG,0.607
6,AUUUUCU,-0.803
7,UGUAAUG,-0.191
8,GCUCGUC,-0.409
9,UUCCUUG,-0.719
10,UGACAGC,-0.227
11,AAGAGAG,1.28
12,CGUGUGU,-0.151
13,CGACCCG,-0.646
14,CCGCUUC,-0.916
15,GUUGGAG,2.19
16,CACACUU,-0.938
17,GGCUUGC,-0.391
18,CACGUCA,-0.435
19,GGAGCUU,0.374
20,UACAAUA,-0.202
21,ACUGGCG,-0.22
22,UACACGA,-0.0998
23,AAUGGCG,2.02
24,GCUAGUA,-0.256
25,GUAUAAU,0.101

row,Sequence,RNAcompete 7-mer binding Z-score
1,CCAGGUG,1.04
2,AACGGCU,-0.0343
3,CAUAUAG,-0.184
4,AGUAUAA,-0.00512
5,CGAGGGG,3.29
6,AAGUGGG,3.5
7,AAGGUUC,1.02
8,CUGUGCG,-0.242
9,GUAAAUA,0.141
10,AUCACUG,-0.475
11,CGCCCCA,-0.77
12,ACUGAAG,0.337
13,UGUUUGG,0.279
14,CGACUUG,-0.668
15,GAGGGAG,3.04
16,CCGGAGC,-0.0561
17,ACAAUCA,-0.311
18,AGUUAGG,2.48
19,UGACAGG,2.26
20,AAUUAUC,-0.653
21,CUAGGUA,0.41
22,UGCAGUU,-0.256
23,AUACCGA,-0.398
24,AAGACCG,-0.344
25,ACCCGCA,-0.81

row,Sequence,RNAcompete 7-mer binding Z-score
1,UGUCAGA,-0.402
2,CUGCCAG,-0.606
3,AUGCCGA,-0.686
4,CGGUCGG,0.68
5,GCAACGG,1.44
6,AACGGGA,3.38
7,CUAAAAA,-0.526
8,AAACGCU,-0.584
9,UAUUGAG,0.0349
10,CCGCAUC,-0.897
11,GAUUAGG,2.76
12,CGACUGC,-0.657
13,CGUGUGC,-0.111
14,AAUCAAU,-0.0561
15,UGGUGAU,0.727
16,AAUACCG,-0.395
17,CUGAAUU,-0.617
18,CCAUGGA,0.359
19,CCUGACG,-0.592
20,CCUUCCA,-0.661
21,UGCCUCA,-0.817
22,UGCGCAU,-0.176
23,AUUUGGG,1.77
24,GGGUUUU,1.9
25,GUUCCGC,-0.639
